# In all, about 33,000 sequences were measured (“E-score (-0.5 to 0.5)”: median about -0.011, highest 2% from about 0.28 on). The list shows a part of the results.
# Target: T1, Gcr1 (UniProt P07261)
# T1 sequence: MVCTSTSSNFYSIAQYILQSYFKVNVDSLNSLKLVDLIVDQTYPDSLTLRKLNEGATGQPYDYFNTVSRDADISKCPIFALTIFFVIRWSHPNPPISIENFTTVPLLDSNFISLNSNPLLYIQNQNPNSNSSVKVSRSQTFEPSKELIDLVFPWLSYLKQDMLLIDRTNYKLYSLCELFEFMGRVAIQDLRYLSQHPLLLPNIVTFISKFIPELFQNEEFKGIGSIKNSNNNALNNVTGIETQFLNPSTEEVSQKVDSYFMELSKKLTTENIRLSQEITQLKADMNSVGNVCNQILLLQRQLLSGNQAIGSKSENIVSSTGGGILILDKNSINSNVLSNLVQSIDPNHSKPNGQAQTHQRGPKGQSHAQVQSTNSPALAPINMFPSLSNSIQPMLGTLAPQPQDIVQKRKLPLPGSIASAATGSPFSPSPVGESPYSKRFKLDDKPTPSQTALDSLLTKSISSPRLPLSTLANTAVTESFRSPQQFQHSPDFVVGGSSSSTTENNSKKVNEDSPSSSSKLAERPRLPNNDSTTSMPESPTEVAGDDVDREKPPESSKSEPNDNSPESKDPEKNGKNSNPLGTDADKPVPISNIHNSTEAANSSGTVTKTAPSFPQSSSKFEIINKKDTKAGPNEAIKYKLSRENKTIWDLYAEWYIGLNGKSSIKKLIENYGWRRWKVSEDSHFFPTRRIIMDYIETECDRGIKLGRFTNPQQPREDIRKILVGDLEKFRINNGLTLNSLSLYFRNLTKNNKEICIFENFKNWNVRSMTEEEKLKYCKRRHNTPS
# Assay: PBM E-score (8-mer binding enrichment) (E-score (-0.5 to 0.5)); higher = stronger / more preferred TF binding; most listed sequences are background and not binding sites
# Conditions: protein concentration: 100 nM; construct: GST-full length
# Summary of the method: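 For each ungapped eight-base word taken together with its reverse complement, the Universal PBM Analysis Suite assigned an E-score. Binding data came from GST-tagged yeast transcription factors, applied at about 100-200 nM, on universal all-10-mer Agilent arrays made double-stranded by primer extension. Fluorescent anti-GST marked bound protein, and scans were normalised with masliner.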
row,Sequence,PBM E-score
1,CCACTTAC,0.088
2,AGAGATCC,0.0351
3,AAGGCTAT,-0.275
4,CATGTGGC,-0.0981
5,CCCGAAAG,0.224
6,AGGCAGAA,-0.219
7,AGATCACA,-0.0742
8,ATTGCAAG,-0.0606
9,CTGTGAAG,0.0393
10,CCCTGTGA,-0.229
11,CGAACAGC,-0.077
12,CCTGTTAC,-0.0373
13,CGATCTAC,-0.0727
14,GTTGCTAA,0.126
15,AATCAAAC,-0.06
16,CCCCCCGG,-0.214
17,GGTTCATA,-0.164
18,AGGCATCC,0.387
19,ATTTCCCA,-0.0517
20,ATAACACG,-0.00339
21,GGAAGTTA,0.339
22,CCAAGCGG,-0.108
23,ACGATCCC,0.15
24,GGTACTAA,0.198
25,ACAATCGT,-0.127

row,Sequence,PBM E-score
1,GTGGCTAA,0.0558
2,TTGACAAA,-0.0717
3,AAAGGGGG,-0.0767
4,CCAACAGG,0.0968
5,CTATATAC,0.135
6,CCCGTTCA,-0.0178
7,ACCTGATA,0.0579
8,CGGAATTA,0.188
9,GGCCACCA,0.0909
10,CGTCCATA,0.173
11,GCGGTATA,-0.124
12,ACACGAGT,-0.046
13,AGAGCAAG,-0.2
14,AATAGATC,-0.0063
15,CGCGAGGC,-0.129
16,ACGGGCAC,0.114
17,AACCTTAT,0.0881
18,AACGGATA,-0.00054
19,CCAGTCAA,0.0483
20,ACTCCGGA,0.198
21,TCTAAAGA,0.0717
22,CCTTAGCC,-0.0482
23,ATGCGAAT,0.162
24,GAAAATGA,0.0123
25,AATAATGA,0.0865

row,Sequence,PBM E-score
1,AGATAGGG,-0.00487
2,TGGAGGAA,-0.0795
3,CGATAAGC,-0.188
4,ACCGGTAC,0.0158
5,GAATGCAA,0.0271
6,AGACCAAG,-0.149
7,AAGAACGG,-0.141
8,AGAAGGCC,0.0434
9,AAGTCATC,-0.169
10,CTACCGCC,-0.237
11,AAAAGTCC,0.00595
12,AGTCCACT,0.18
13,AAGAAGGT,0.122
14,CGATTCTA,0.0385
15,CTGCCAAA,0.157
16,ATAGCCCG,-0.124
17,GTGTTTAA,-0.0755
18,ACGATTAG,-0.163
19,GCAAAAGA,-0.172
20,AGGGACTG,-0.264
21,ATACGCGG,0.115
22,GGTTAATA,0.0151
23,CAGCTGGG,-0.0114
24,CTGCCGTC,-0.11
25,GAAATCCA,0.192

row,Sequence,PBM E-score
1,CTTCGCTC,-0.12
2,ATAGACCG,-0.183
3,GACTTTTA,-0.0556
4,CTGTTGCC,0.112
5,AAGTGATT,-0.052
6,ATTCCTCC,0.153
7,CTAACGAA,-0.00472
8,CTGTTCGA,-0.105
9,GGGTGAAC,-0.254
10,AGCACACT,-0.164
11,ATCCAGTC,0.145
12,AAGCGGTC,0.0279
13,ACGTTCAG,-0.254
14,GCGGTACA,-0.197
15,AACGAGTA,0.014
16,CGTGGATA,-0.104
17,ATCAAACC,0.0747
18,GCATAGCC,-0.311
19,AGACTACC,-0.239
20,GATGGTAC,-0.0137
21,ACAACCCC,-0.133
22,ATCAGATC,-0.0629
23,CAATTGTA,0.0437
24,CGTGCAAC,-0.0564
25,GTCTTAGA,0.0315

row,Sequence,PBM E-score
1,GCTGCTAA,0.2
2,AATACAGG,0.343
3,ATAGCCTA,-0.134
4,AGGCTTAT,-0.258
5,ATAACGGA,0.188
6,CCATTATC,0.219
7,CCAGTCCG,-0.038
8,GGGTTACC,-0.142
9,GTTGGCTA,0.103
10,ACGCGCCC,0.352
11,AACAGATC,-0.169
12,CATCTGCC,0.127
13,GCCCTCAC,-0.183
14,CTCCGCAC,-0.105
15,CATTTCAC,-0.0869
16,TAATCAGA,0.189
17,ACGATGGG,-0.041
18,CTATAACA,-0.0172
19,AGATTCCC,0.265
20,CCCCTCCA,0.109
21,ACATGAAT,0.0191
22,CGCTCTCC,-0.195
23,AACTGCTC,-0.208
24,CCTGGGGC,-0.0718
25,AACTTAGG,0.123

row,Sequence,PBM E-score
1,GTCTGGCA,-0.153
2,ACGATAGG,0.149
3,AGAGTAAC,-0.248
4,GACGTTAA,-0.0271
5,TCAACTAA,-0.00686
6,CTTAGGAA,0.142
7,CAAATTAC,0.155
8,GAGACGAC,-0.159
9,CCGAAAAA,0.158
10,AAAAATCA,0.052
11,GTTCAGGA,0.134
12,CCATACAA,0.157
13,GGGTGCGA,-0.0925
14,TGTTCAAA,-0.014
15,AGGTGTCA,0.162
16,GCGTTAGC,-0.135
17,CACTTTCC,0.0878
18,ACCCGAAG,0.106
19,ATCATAGG,0.0674
20,AAACCCAA,0.0869
21,ATGAATTC,0.104
22,CAATCACA,-0.0744
23,AACAATCA,-0.0387
24,ACCGTAGT,-0.0942
25,TGTGTAAA,0.102

row,Sequence,PBM E-score
1,AAAATCGC,0.0752
2,CGGGGAAC,0.0303
3,CCGTACAG,-0.186
4,GGCCTACA,-0.0286
5,ACCCGCGC,-0.0565
6,CGACCTAC,-0.148
7,GATGGGGC,0.0208
8,AACGCTCG,-0.168
9,CCAAACTC,0.00455
10,AATCGCCT,-0.0372
11,ATGGCCAT,-0.154
12,ATACCGTA,-0.0485
13,GGGTCTAA,-0.0543
14,GTCGGGTA,0.1
15,CTTAGATA,0.0548
16,CTGGGGTA,-0.0593
17,GCCCACCC,0.182
18,GTTACTAA,0.0464
19,CTGTTCGC,0.0314
20,TCCTCTCA,0.162
21,GATGGAAA,0.029
22,ACCAAGTA,0.00559
23,ACGGGAAT,0.111
24,CTATTGTC,-0.141
25,GTTGTGAA,-0.0947

row,Sequence,PBM E-score
1,GTTGGAGA,-0.00098
2,CTCTCCCA,-0.0788
3,GGGTTCAA,-0.101
4,ATTTTTCG,0.0814
5,CCGGATAA,0.125
6,GTATATGA,-0.0566
7,ATTTACTA,0.0638
8,ACGGCAGG,-0.261
9,CATATTCC,-0.189
10,CAGGTACA,-0.0209
11,GGGCTCCA,0.318
12,ATCTATAA,0.0292
13,AAAGCATA,0.0556
14,AATAGCTA,0.0488
15,CCTGTGAA,0.15
16,GCTCTTAA,0.171
17,GGGGTAGA,0.049
18,GTATGGAA,0.0155
19,GATAGTCA,-0.264
20,TACACAAA,0.112
21,CCACCCAG,0.273
22,AACTACAC,-0.0872
23,CCGCCAAA,0.0502
24,GCGGATAA,0.161
25,AACTCAGT,-0.21

row,Sequence,PBM E-score
1,GACCAAAA,0.155
2,CCCTGACG,-0.0677
3,CACGCGGA,-0.028
4,GAACCATC,-0.157
5,ATGTACAC,0.00539
6,CCCGGGGC,0.0219
7,GGAGGCCC,0.0846
8,CGCCGGGC,-0.0527
9,AAGTCGCT,0.0779
10,GAGCTTAC,-0.17
11,CGTGATGA,-0.0315
12,ATGCTAAT,0.267
13,CATTAAAA,0.306
14,AGCCCTAG,0.0495
15,GCTAACCA,0.0133
16,ATTGGCTG,0.13
17,GGATTCAC,0.159
18,AGGCCTCC,0.174
19,CGGCTCAA,0.00705
